Experimental data as given in PubChem BioAssay AID1460 (National Center for Advancing Translational Sciences (NCATS), 2008).
Among all 270,000 compounds or so, about 5,800 (2.1%) were called active. The shares of active, inactive and inconclusive entries below differ from those in the screen. Calls come from the whole dose curve; as a rule, active = well fitted inhibition curve with a large enough effect; inconclusive = small, poorly fitted or top-dose-only effect; inactive = flat fitted curve, though single readings scatter. Potencies of inconclusive entries are doubtful fits and often do not repeat.

Molecular target: Microtubule-associated protein tau (Homo sapiens) (UniProt P10636)
Assay: qHTS for Inhibitors of Tau Fibril Formation, Thioflavin T Binding; note: nearly all actives have a fitted effect of over 55% in size
Settings: recombinant tau K18 P301L (four-repeat tau fragment), heparin-induced fibrillization, ThT fluorescence; series mostly up to 57.4 µM; activity, negative = inhibition: at the top concentration
Summary of the method: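 In this qHTS, human K18 P301L tau is incubated with compound and heparin for 6 hr at 37 C, and Thioflavin T fluorescence then reports fibril load.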
% is set by controls: 0 for no effect and ±100 for the full control effect; potency is the fitted concentration of half-maximal effect; tags give direction and shape of the fitted curve.

Chain of UniProt P10636 (P10636 whole entry, looked up): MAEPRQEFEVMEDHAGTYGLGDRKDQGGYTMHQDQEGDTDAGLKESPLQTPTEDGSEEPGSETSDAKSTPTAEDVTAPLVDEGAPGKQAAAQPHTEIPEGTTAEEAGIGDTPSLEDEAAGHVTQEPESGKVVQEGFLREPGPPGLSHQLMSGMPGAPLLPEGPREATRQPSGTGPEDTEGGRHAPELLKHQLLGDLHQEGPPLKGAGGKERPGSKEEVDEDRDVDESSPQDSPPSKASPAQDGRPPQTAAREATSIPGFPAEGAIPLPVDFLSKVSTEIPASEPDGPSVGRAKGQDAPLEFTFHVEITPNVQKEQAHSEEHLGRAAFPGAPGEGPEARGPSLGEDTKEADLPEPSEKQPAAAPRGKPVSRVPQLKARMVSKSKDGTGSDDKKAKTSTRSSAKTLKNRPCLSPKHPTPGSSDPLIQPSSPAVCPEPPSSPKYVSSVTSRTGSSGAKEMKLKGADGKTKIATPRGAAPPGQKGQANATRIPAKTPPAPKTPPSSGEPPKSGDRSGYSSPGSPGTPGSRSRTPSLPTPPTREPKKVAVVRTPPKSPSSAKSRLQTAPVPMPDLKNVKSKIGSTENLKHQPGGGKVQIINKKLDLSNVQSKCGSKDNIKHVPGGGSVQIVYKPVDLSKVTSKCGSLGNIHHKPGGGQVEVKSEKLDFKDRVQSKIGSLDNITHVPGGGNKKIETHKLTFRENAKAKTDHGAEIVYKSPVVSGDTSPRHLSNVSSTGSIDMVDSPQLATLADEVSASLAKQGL

Question: How did the Potency turn out when `Cc1ccc(NC(=O)CCn2cnc3cc(C)c(C)cc32)cc1` was run?
Answer: inconclusive: 35.5 µM [inhibitor, single point]

Question: For `c1ccc(CSc2nnc3c(n2)OC(c2ccco2)Nc2ccccc2-3)cc1` (stereo not given), which Potency is on record?
Answer: inconclusive: 28.2 µM [inhibitor, partial curve]

Question: How did the Potency turn out when `COc1ccccc1N1CCN(c2ccc(-c3nc(-c4ccccc4)no3)cc2[N+](=O)[O-])CC1` was run?
Answer: inconclusive: 35.5 µM [inhibitor, single point]

Question: How did the Potency turn out when `Cc1[nH]n(-c2ccccc2)c(=O)c1/C=N/N1C(=O)c2ccc3c4c(ccc(c24)C1=O)CC3` was run?
Answer: inconclusive: 22.4 µM [inhibitor, partial curve]

Question: With `CCC1CCCCN1CCCNC(=O)c1ccc2c(c1)N(Cc1ccc(Cl)cc1)C(=O)c1ccccc1S2(=O)=O` (stereo not given) as the molecule, how does the Potency read?
Answer: inconclusive: 44.7 µM [inhibitor, single point]

Question: How did the Potency turn out when `CCOc1ccc2cc(C#N)c(SCC(=O)OC)nc2c1` was run?
Answer: active: 3.16 µM

Question: With `O=C(/C=C/c1cccc([N+](=O)[O-])c1)NC(=S)Nc1cccc(NC(=O)c2ccccc2Cl)c1` as the molecule, how does the Potency read?
Answer: inconclusive: 7.94 µM [inhibitor, partial curve]

Question: `O=C(CCN1C(=O)COc2ccccc21)NCCN1CCc2ccccc2C1` was tested. Which “activity, negative = inhibition” value did it give?
Answer: inactive: -12.9%

Question: With `CCN(CC)CCN1C(=O)C(O)=C(C(=O)c2ccco2)C1c1ccccn1` (stereo not given) as the molecule, how does the Potency read?
Answer: inconclusive: 22.4 µM [inhibitor, partial curve, poor fit]

Question: For `Cc1nnc(NC(=O)CSc2nccn2-c2ccc(Cl)cc2)s1`, which “activity, negative = inhibition” value is on record?
Answer: inactive: 3.81%

Question: How did the “activity, negative = inhibition” value turn out when `CCC(=O)O[C@@]1(C(=O)CCl)C(C)CC2C3CCC4=CC(=O)C=C[C@@]4(C)[C@]3(F)C(O)C[C@]21C` (stereo not given in full) was run?
Answer: inactive: -9.19%

Question: How did the “activity, negative = inhibition” value turn out when `CN(C)C(=O)c1ccc(-c2nc(NCc3cccs3)c3ccccc3n2)cc1` was run?
Answer: inactive: -4.42%

Question: Which Potency does the source give for `COc1ccc2[nH]c3ccc(OC)cc3c2c1` here?
Answer: inconclusive: 5.01 µM [inhibitor, partial curve]

Question: For `Nc1nc2c(ncn2[C@@H]2O[C@H](COP(=O)(O)OP(=O)(O)O)[C@@H](O)[C@H]2O)c(=O)[nH]1`, which “activity, negative = inhibition” value is on record?
Answer: inactive: 3.14%

Question: How did the Potency turn out when `CCC(=O)OCCNc1cc(SCCC(=O)OC)c2nonc2c1[N+](=O)[O-]` was run?
Answer: active: 7.94 µM

Question: `N#CCSc1nnc(COc2cccc3ccccc23)n1-c1cccc(Cl)c1` was tested. Which “activity, negative = inhibition” value did it give?
Answer: inactive: -12.1%

Question: How did the Potency turn out when `CCOC(=O)c1sc(-c2ccc(OC)cc2)cc1N` was run?
Answer: inconclusive: 5.62 µM [inhibitor, full curve]

Question: For `Cc1sc2nc(SCC(=O)c3cc(C)n(CC4CCCO4)c3C)n(C(C)C)c(=O)c2c1C` (stereo not given), which Potency is on record?
Answer: inconclusive: 28.2 µM [inhibitor, partial curve]

Question: `COc1ccc(C2CC(=O)c3c(C)nc(N4CCN(C=O)CC4)nc3C2)c(OC)c1` (stereo not given) was tested. Which “activity, negative = inhibition” value did it give?
Answer: inactive: -12.7%

Question: Which “activity, negative = inhibition” value does the source give for `COCCNC(=O)c1ccc(NC(C)=O)cc1` here?
Answer: inactive: -1.91%

Question: With `CCOC(=O)c1ccc(N=c2ssnc2Cl)cc1` as the molecule, how does the Potency read?
Answer: active: 28.2 µM

Question: How did the Potency turn out when `CCn1c(=O)sc2cc(NC(=O)c3cccc(OC)c3)ccc21` was run?
Answer: inconclusive: 3.98 µM [inhibitor, partial curve]

Question: With `CCOC(=O)c1cccc(NC(=O)c2cc3sccc3n2C)c1` as the molecule, how does the Potency read?
Answer: inconclusive: 12.6 µM [inhibitor, partial curve]

Question: Which Potency does the source give for `O=C(COc1cccc(Cl)c1)Nc1ccc(N2CCOCC2)cc1` here?
Answer: inconclusive: 11.2 µM [inhibitor, partial curve]

Question: `CNC(=S)N/N=C/c1cn(Cc2c(F)cccc2Cl)c2ccccc12` was tested. Which Potency did it give?
Answer: inconclusive: 7.08 µM [inhibitor, full curve]

Question: Which Potency does the source give for `O=C(Oc1coc(CSc2ncccn2)cc1=O)c1ccc(Br)o1` here?
Answer: inconclusive: 25.1 µM [inhibitor, partial curve]

Question: `CCOC(=O)c1c(-c2ccc(C)cc2)csc1NC(=O)c1cc(=O)c2cc(Cl)ccc2o1` was tested. Which “activity, negative = inhibition” value did it give?
Answer: inactive: -19.1%

Question: For `COC(=O)c1ccc(C(=O)OC)c(NC(=O)N2CC3CCCN3c3ccccc32)c1` (stereo not given), which Potency is on record?
Answer: inconclusive: 3.55 µM [inhibitor, partial curve]

Question: Which Potency does the source give for `Cc1ccc(C(=O)NC(=S)Nc2ccc(N3CCOCC3)cc2)cc1C` here?
Answer: inconclusive: 3.55 µM [inhibitor, partial curve]

Question: `COc1ccc(-c2nn(-c3ccccc3)cc2C(=O)NC(=S)NNC(=O)c2ccncc2)cc1` was tested. Which Potency did it give?
Answer: inconclusive: 14.1 µM [inhibitor, partial curve]

Question: With `CCc1nc(SCC(=O)Nc2sc(C)c(C)c2C(=O)OC)c2ccccc2n1` as the molecule, how does the “activity, negative = inhibition” value read?
Answer: inactive: -13.1%

Question: With `O=C(CSc1nnc(Cc2csc(Nc3cccc(Cl)c3)n2)o1)N1CCc2ccccc21` as the molecule, how does the Potency read?
Answer: inconclusive: 3.98 µM [inhibitor, full curve]

Question: How did the Potency turn out when `Cc1ccc(Cl)cc1N1CCN(C(=O)C2CCN(c3nnc(-n4cccc4)s3)CC2)CC1` was run?
Answer: inconclusive: 2.82 µM [inhibitor, partial curve]

Question: `CCOC(=O)CC(=O)CSc1nc2ccccc2c(=O)n1-c1ccc(C(=O)NCCOC)cc1` was tested. Which Potency did it give?
Answer: inconclusive: 0.794 µM [activator, full curve, poor fit]

Question: For `COc1ccccc1N/N=C/c1c(CO)cnc(C)c1O`, which Potency is on record?
Answer: inconclusive: 31.6 µM [inhibitor, partial curve]

Question: `O=C(/C=C/c1ccccc1)c1ccc(NC2=NCCCS2)cc1` was tested. Which Potency did it give?
Answer: inconclusive: 7.94 µM [inhibitor, full curve]

Question: How did the Potency turn out when `COc1ccc(Nc2nnc(SCC(=O)/C=C3/N(C)c4ccccc4C3(C)C)s2)cc1` was run?
Answer: inconclusive: 28.2 µM [inhibitor, partial curve, poor fit]

Question: `O=c1c2cn[nH]c2[nH]c(=S)n1-c1cccc2ccccc12` was tested. Which “activity, negative = inhibition” value did it give?
Answer: inactive: -15.9%

Question: With `COc1ccc(S(=O)(=O)Nc2ccccc2C(F)(F)F)cc1` as the molecule, how does the “activity, negative = inhibition” value read?
Answer: inactive: -1.24%

Question: For `CCOC(=O)c1ccc(CC2S/C(=C(\C#N)C(C)=O)NC2=O)cc1` (stereo not given), which Potency is on record?
Answer: inconclusive: 20 µM [inhibitor, partial curve]

Question: `COC(=O)c1ccccc1NC(=O)Cn1c(=O)nc(-c2ccccc2)c2cc(Cl)ccc21` was tested. Which Potency did it give?
Answer: inconclusive: 25.1 µM [inhibitor, single point]

Question: With `CCCN(Cc1cc2ccc(C)cc2[nH]c1=O)S(=O)(=O)c1ccccc1` as the molecule, how does the “activity, negative = inhibition” value read?
Answer: inactive: -19.3%

Question: For `COc1cc(-c2nc(S(=O)(=O)c3ccccc3)c(N3CCOCC3)o2)cc(OC)c1OC`, which Potency is on record?
Answer: inconclusive: 39.8 µM [inhibitor, single point]

Question: Which “activity, negative = inhibition” value does the source give for `CCCc1nc2ccccc2c(C(=O)OCC(=O)NCc2ccco2)c1CC` here?
Answer: inactive: -14.3%

Question: Which Potency does the source give for `COc1ccc(C(=O)NC(=S)NC(C)C)cc1Br` here?
Answer: inconclusive: 25.1 µM [inhibitor, partial curve, poor fit]

Question: Which Potency does the source give for `COc1cccc(CNC(=O)CSCc2cnn(-c3ccccc3)c2-n2cccc2)c1OC` here?
Answer: inconclusive: 35.5 µM [inhibitor, partial curve]

Question: How did the Potency turn out when `Cc1ccc(C)c(N2C(=O)CN=C2Nc2ccccc2Cl)c1` was run?
Answer: inconclusive: 44.7 µM [inhibitor, single point]

Question: For `COc1ccccc1NCCC(=O)OCC(=O)NC1CCCCC1`, which “activity, negative = inhibition” value is on record?
Answer: inactive: -7.96%

Question: For `Cc1cccc(NCc2cc(Cl)cc(Cl)c2O)n1`, which “activity, negative = inhibition” value is on record?
Answer: inactive: -3.04%

Question: For `CN(C)c1ccc(N=Nc2ccccc2C(=O)OCC(=O)NC2CCCC2)cc1`, which Potency is on record?
Answer: active: 6.31 µM

Question: How did the Potency turn out when `Cc1cccc(OCC(=O)OCc2cc(=O)n3nc(-c4cccs4)sc3n2)c1` was run?
Answer: inconclusive: 10 µM [inhibitor, full curve]

Question: How did the Potency turn out when `NC(=O)c1c(NC(=O)C2c3ccccc3Oc3ccccc32)sc2c1CCCCC2` was run?
Answer: inconclusive: 39.8 µM [inhibitor, single point]

Question: For `O=C(Nc1ccc2nc(SCC(=O)N3CCCC3)sc2c1)c1ccc(Br)cc1`, which Potency is on record?
Answer: inconclusive: 0.562 µM [inhibitor, full curve, poor fit]

Question: With `O=C(Nc1ccc2oc(-c3ccncc3)nc2c1)c1ccccc1` as the molecule, how does the Potency read?
Answer: inconclusive: 8.91 µM [inhibitor, full curve]

Question: `NC(=O)CC(NC(=O)Cc1ccc(Cl)cc1)c1ccc(NC2CCCC2)c([N+](=O)[O-])c1` (stereo not given) was tested. Which Potency did it give?
Answer: inconclusive: 35.5 µM [inhibitor, partial curve]

Question: With `COc1cc2c(cc1OC)CN(CC(=O)NC(=O)NCc1ccco1)CC2` as the molecule, how does the Potency read?
Answer: inconclusive: 35.5 µM [inhibitor, single point]

Question: How did the Potency turn out when `Cc1nc(C)c(-c2csc(Nc3cccnc3)n2)s1` was run?
Answer: inconclusive: 15.8 µM [inhibitor, partial curve]

Question: For `C/[N+]([O-])=C\CC(=O)c1ccc(-c2ccccc2)cc1`, which Potency is on record?
Answer: inconclusive: 20 µM [inhibitor, partial curve]

Question: With `O=C(CCCc1cccs1)Nc1nc2c(s1)CCCC2` as the molecule, how does the Potency read?
Answer: inconclusive: 28.2 µM [inhibitor, single point]

Question: Which Potency does the source give for `O=Cc1cc(N=Nc2cccc(C(=O)O)c2)ccc1O` here?
Answer: active: 3.98 µM

Question: For `Cc1cccc(OCCSc2nc3ccc(NC(=O)c4cccs4)cc3s2)c1`, which “activity, negative = inhibition” value is on record?
Answer: inactive: 7.24%

Question: For `CCOc1ccc(Nc2ncnc3c2cnn3-c2ccccc2)cc1`, which Potency is on record?
Answer: inconclusive: 1.41 µM [inhibitor, full curve]

Question: How did the “activity, negative = inhibition” value turn out when `O=C(NC1=NCCS1)c1cccc2ccccc12` was run?
Answer: inactive: -8.38%

Question: With `O=C(Nc1ccc2c(c1)OCCO2)c1cccc2nc3ccccc3nc12` as the molecule, how does the Potency read?
Answer: active: 4.47 µM

Question: Which Potency does the source give for `Cc1ccccc1-n1c(SCC(=O)Nc2ccc3c(c2)OCO3)nnc1-c1ccccn1` here?
Answer: inconclusive: 39.8 µM [inhibitor, single point]

Question: Which “activity, negative = inhibition” value does the source give for `Cc1cccc(Cn2cc(S(=O)(=O)c3ccc(Cl)cc3)c(=O)c3cc4c(cc32)OCO4)c1` here?
Answer: inactive: -0.51%

Question: With `NNC(=O)c1ccc2[nH]c3c(c2c1)CCCC3` as the molecule, how does the Potency read?
Answer: inconclusive: 14.1 µM [inhibitor, partial curve]

Question: For `COc1ccc(CCNC(=O)C2CC(c3c(Cl)cccc3Cl)=NO2)cc1` (stereo not given), which Potency is on record?
Answer: inconclusive: 35.5 µM [inhibitor, partial curve, poor fit]

Question: Which “activity, negative = inhibition” value does the source give for `S=c1[nH]nc(C2CCCCC2)n1/N=C/c1ccccn1` here?
Answer: inactive: 15%

Question: How did the Potency turn out when `C=CCn1c(SCc2csc(C)n2)nc2sc3c(c2c1=O)CCC(C)C3` (stereo not given) was run?
Answer: inconclusive: 17.8 µM [inhibitor, partial curve]
